The supplement of paper PMC8728848
Some of the results follow.

Tests used:
Assay in all cases: glycan array binding signal (z-score within array); higher = stronger binding
Conditions in all cases: glycan notation: IUPAC condensed, linker removed
[1] = biological target: GlcNAc(b1-3)Gal(b1-3)GalNAc
How it was run: (§1)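 Glycan array data were curated from 3228 arrays in the Consortium for Functional Glycomics database and kept only where the protein sequence was available. Glycan names were converted to IUPAC-condensed notation, and columns mapping to the same glycan were averaged. The binding signal is a within-array Z-score, averaged across arrays of the same protein sequence at different concentrations or buffers and across linkers. Negative Z-scores can be read as non-binding.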

[2] = biological target: GlcNAc(b1-3)Gal(b1-4)Glc
How it was run: as §1

[3] = biological target: GlcNAc(b1-3)Gal(b1-4)GlcNAc
How it was run: as §1

[4] = biological target: GlcNAc(b1-3)Gal(b1-4)GlcNAc(b1-2)Man(a1-3)[GlcNAc(b1-3)Gal(b1-4)GlcNAc(b1-2)Man(a1-6)]Man(b1-4)GlcNAc(b1-4)GlcNAc
How it was run: as §1

[5] = biological target: GlcNAc(b1-3)Gal(b1-4)GlcNAc(b1-2)Man(a1-3)[GlcNAc(b1-3)Gal(b1-4)GlcNAc(b1-2)Man(a1-6)]Man(b1-4)GlcNAc(b1-4)[Fuc(a1-6)]GlcNAc
How it was run: as §1

[6] = biological target: GlcNAc(b1-3)Gal(b1-4)GlcNAc(b1-2)[GlcNAc(b1-3)Gal(b1-4)GlcNAc(b1-6)]Man(a1-6)[GlcNAc(b1-3)Gal(b1-4)GlcNAc(b1-2)Man(a1-3)]Man(b1-4)GlcNAc(b1-4)GlcNAc
How it was run: as §1

[7] = biological target: GlcNAc(b1-3)Gal(b1-4)GlcNAc(b1-3)Gal(b1-4)GlcNAc
How it was run: as §1

[8] = biological target: GlcNAc(b1-3)Gal(b1-4)GlcNAc(b1-3)Gal(b1-4)GlcNAc(b1-2)Man(a1-3)[GlcNAc(b1-3)Gal(b1-4)GlcNAc(b1-3)Gal(b1-4)GlcNAc(b1-2)Man(a1-6)]Man(b1-4)GlcNAc(b1-4)GlcNAc
How it was run: as §1

[9] = biological target: GlcNAc(b1-3)Gal(b1-4)GlcNAc(b1-3)Gal(b1-4)GlcNAc(b1-2)Man(a1-3)[GlcNAc(b1-3)Gal(b1-4)GlcNAc(b1-3)Gal(b1-4)GlcNAc(b1-2)Man(a1-6)]Man(b1-4)GlcNAc(b1-4)[Fuc(a1-6)]GlcNAc
How it was run: as §1

[10] = biological target: GlcNAc(b1-3)Gal(b1-4)GlcNAc(b1-3)Gal(b1-4)GlcNAc(b1-2)[GlcNAc(b1-3)Gal(b1-4)GlcNAc(b1-3)Gal(b1-4)GlcNAc(b1-6)]Man(a1-6)[GlcNAc(b1-3)Gal(b1-4)GlcNAc(b1-3)Gal(b1-4)GlcNAc(b1-2)Man(a1-3)]Man(b1-4)GlcNAc(b1-4)[Fuc(a1-6)]GlcNAc
How it was run: as §1

[11] = biological target: GlcNAc(b1-3)Gal(b1-4)GlcNAc(b1-3)Gal(b1-4)GlcNAc(b1-3)Gal(b1-4)GlcNAc(b1-2)Man(a1-3)[GlcNAc(b1-3)Gal(b1-4)GlcNAc(b1-3)Gal(b1-4)GlcNAc(b1-3)Gal(b1-4)GlcNAc(b1-2)Man(a1-6)]Man(b1-4)GlcNAc(b1-4)GlcNAc
How it was run: as §1

[12] = biological target: GlcNAc(b1-3)Gal(b1-4)GlcNAc(b1-3)Gal(b1-4)GlcNAc(b1-3)Gal(b1-4)GlcNAc(b1-2)Man(a1-3)[GlcNAc(b1-3)Gal(b1-4)GlcNAc(b1-3)Gal(b1-4)GlcNAc(b1-3)Gal(b1-4)GlcNAc(b1-2)Man(a1-6)]Man(b1-4)GlcNAc(b1-4)[Fuc(a1-6)]GlcNAc
How it was run: as §1

[13] = biological target: GlcNAc(b1-3)Gal(b1-4)GlcNAc(b1-3)Gal(b1-4)GlcNAc(b1-3)Gal(b1-4)GlcNAc(b1-2)[GlcNAc(b1-3)Gal(b1-4)GlcNAc(b1-3)Gal(b1-4)GlcNAc(b1-3)Gal(b1-4)GlcNAc(b1-6)]Man(a1-6)[GlcNAc(b1-3)Gal(b1-4)GlcNAc(b1-3)Gal(b1-4)GlcNAc(b1-3)Gal(b1-4)GlcNAc(b1-2)Man(a1-3)]Man(b1-4)GlcNAc(b1-4)[Fuc(a1-6)]GlcNAc
How it was run: as §1

[14] = biological target: GlcNAc(b1-3)Gal(b1-4)GlcNAc(b1-3)Gal(b1-4)GlcNAc(b1-3)Gal(b1-4)GlcNAc(b1-3)Gal(b1-4)GlcNAc(b1-2)Man(a1-3)[GlcNAc(b1-3)Gal(b1-4)GlcNAc(b1-3)Gal(b1-4)GlcNAc(b1-3)Gal(b1-4)GlcNAc(b1-3)Gal(b1-4)GlcNAc(b1-2)Man(a1-6)]Man(b1-4)GlcNAc(b1-4)GlcNAc
How it was run: as §1

[15] = biological target: GlcNAc(b1-3)Gal(b1-4)GlcNAc(b1-3)Gal(b1-4)GlcNAc(b1-3)Gal(b1-4)GlcNAc(b1-3)Gal(b1-4)GlcNAc(b1-2)Man(a1-3)[GlcNAc(b1-3)Gal(b1-4)GlcNAc(b1-3)Gal(b1-4)GlcNAc(b1-3)Gal(b1-4)GlcNAc(b1-3)Gal(b1-4)GlcNAc(b1-2)Man(a1-6)]Man(b1-4)GlcNAc(b1-4)[Fuc(a1-6)]GlcNAc
How it was run: as §1

[16] = biological target: GlcNAc(b1-3)Gal(b1-4)GlcNAc(b1-3)Gal(b1-4)GlcNAc(b1-3)Gal(b1-4)GlcNAc(b1-3)Gal(b1-4)GlcNAc(b1-2)[GlcNAc(b1-3)Gal(b1-4)GlcNAc(b1-3)Gal(b1-4)GlcNAc(b1-3)Gal(b1-4)GlcNAc(b1-3)Gal(b1-4)GlcNAc(b1-6)]Man(a1-6)[GlcNAc(b1-3)Gal(b1-4)GlcNAc(b1-3)Gal(b1-4)GlcNAc(b1-3)Gal(b1-4)GlcNAc(b1-3)Gal(b1-4)GlcNAc(b1-2)Man(a1-3)]Man(b1-4)GlcNAc(b1-4)[Fuc(a1-6)]GlcNAc
How it was run: as §1

[17] = biological target: GlcNAc(b1-3)Gal(b1-4)GlcNAc(b1-3)Gal(b1-4)GlcNAc(b1-3)GalNAc
How it was run: as §1

[18] = biological target: GlcNAc(b1-3)Gal(b1-4)GlcNAc(b1-3)GalNAc
How it was run: as §1

B1: Als1 (Candida albicans), P46590 (protein)
chain: KTITGVFDSFNSLTWSNAANYAFKGPGYPTWNAVLGWSLDGTSANPGDTFTLNMPCVFKYTTSQTSVDLTADGVKYATCQFYSGEEFTTFSTLTCTVNDALKSSIKAFGTVTLPIAFNVGGTGSSTDLEDSKCFTAGTNTVTFNDGDKDISIDVEFEKSTVDPSGYLYASRVMPSLNKVTTLFVAPQCENGYTSGTMGFSSSNGDVAIDCSNIHIGITKGLNDWNYPVSSESFSYTKTCTSNGIQIKYQNVPAGYRPFIDAYISATDVNQYTLAYTNDYTCAGSRLQSKPFTLRWTGYKNSDAGSNGIVIVATTRTVTDSTTAVTTLPFNPSVDKTKTIEILQPIPTTTITTSYVGVTTSYLTKTAPIGETATVIVDVPYHTTTTVTSEWTGTITTTTTRTNPTDSIDTVVVQVP
[1]
  glycan array binding signal (z-score): -0.321
[2]
  glycan array binding signal (z-score): -0.381
[3]
  glycan array binding signal (z-score): -0.393
[4]
  glycan array binding signal (z-score): -0.591
[5]
  glycan array binding signal (z-score): -0.201
[6]
  glycan array binding signal (z-score): 4.37
[7]
  glycan array binding signal (z-score): -0.343
[8]
  glycan array binding signal (z-score): 2.67
[9]
  glycan array binding signal (z-score): -0.328
[10]
  glycan array binding signal (z-score): 0.505
[11]
  glycan array binding signal (z-score): 0.134
[12]
  glycan array binding signal (z-score): -0.545
[13]
  glycan array binding signal (z-score): 0.48
[14]
  glycan array binding signal (z-score): -0.474
[15]
  glycan array binding signal (z-score): -0.624
[16]
  glycan array binding signal (z-score): 0.182
[17]
  glycan array binding signal (z-score): -0.508
[18]
  glycan array binding signal (z-score): 0.306
